{
  "source": "patent US10111437B2",
  "about": "“Substituted guanidines as fungicides” (Nippon Soda Co., Ltd., priority 2015, dated 2018)",
  "data": [
    {"system": "wheat powdery mildew fungus (Blumeria graminis f. sp. tritici)", "assay": "Wheat powdery mildew control test (foliar spray on wheat seedlings)", "conditions": "in Triticum aestivum, 168 h, read-out: control value", "units": {"pest or weed control at 125 ppm": "%"}, "values": [
      {"smiles": "N=C(N)c1ccc(OCCCN2CCN(CCCOc3ccc(C(=N)N)cc3)C2=N)cc1", "note": "[compound 2, 4-[3-[3-[3-(4-carbamimidoylphenoxy)propyl]-2-imino-imidazolidin-1-yl]propoxy]benzamidine]", "pest or weed control at 125 ppm": "≥ 75"},
      {"smiles": "N=C(N)c1ccc(OCCCCN2CCN(CCCCOc3ccc(C(=N)N)cc3)C2=N)cc1", "note": "[compound 6, 4-[4-[3-[4-(4-carbamimidoylphenoxy)butyl]-2-imino-imidazolidin-1-yl]butoxy]benzamidine]", "pest or weed control at 125 ppm": "≥ 75"},
      {"smiles": "N=C(N)NCCCCCCCN1CCN(CCCCCCCNC(=N)N)C1=N", "note": "[compound 8, 1-[7-[3-(7-guanidinoheptyl)-2-imino-imidazolidin-1-yl]heptyl]guanidine]", "pest or weed control at 125 ppm": "≥ 75"},
      {"smiles": "N=C(NCCCCOc1ccc(C(=N)N)cc1)NCCCCOc1ccc(C(=N)N)cc1", "note": "[compound 10, 4-[4-[[N-[4-(4-carbamimidoylphenoxy)butyl]carbamimidoyl]amino]butoxy]benzamidine]", "pest or weed control at 125 ppm": "≥ 75"},
      {"smiles": "N=C(N)NCCCCCCCNC(=N)NCCCCCCCNC(=N)N", "note": "[compound 12, 1,3-bis(7-guanidinoheptyl)guanidine]", "pest or weed control at 125 ppm": "≥ 75"},
      {"smiles": "N=C(NCCCOc1ccc(C(=N)N)cn1)NCCCOc1ccc(C(=N)N)cn1", "note": "[compound 17, 6,6′-((((iminomethylene)bis(azanediyl))bis (propane-3,1-diyl))bis(oxy))dinicotinimidamide]", "pest or weed control at 125 ppm": "≥ 75"},
      {"smiles": "N=C(NCCCC#Cc1ccc(C(=N)N)cc1)NCCCC#Cc1ccc(C(=N)N)cc1", "note": "[compound 22, 4-[5-[[N-[5-(4-carbamimidoylphenyl)pent-4-ynyl]carbamimidoyl]amino]pent-1-ynyl]benzamidine]", "pest or weed control at 125 ppm": "≥ 75"},
      {"smiles": "N=C(N)NCCCCCCCn1ccn(CCCOc2ccc(C(=N)N)cc2)c1=N", "note": "[compound 25, 4-[3-[3-(7-guanidinoheptyl)-2-imino-imidazol-1-yl]propoxy]benzamidine]", "pest or weed control at 125 ppm": "≥ 75"},
      {"smiles": "N=C(N)NCCCCCCCNC(=N)NCCCOc1ccc(C(=N)N)cc1", "note": "[compound 29, 4-[3-[[N-(7-guanidinoheptyl)carbamimidoyl]amino]propoxy]benzamidine]", "pest or weed control at 125 ppm": "≥ 75"},
      {"smiles": "N=C(N)NCCCCCCCNC(=N)NCCCCOc1ccc(C(=N)N)cc1", "note": "[compound 30, 4-[4-[[N-(7-guanidinoheptyl)carbamimidoyl]amino]butoxy]benzamidine]", "pest or weed control at 125 ppm": "≥ 75"},
      {"smiles": "N=C(N)NCCCCCCCNC(=N)NCCCCOc1ccc(C(=N)N)cn1", "note": "[compound 32, 6-(4-(3-(7-guanidinoheptyl)guanidino)butoxy)nicotinimidamide]", "pest or weed control at 125 ppm": "≥ 75"},
      {"smiles": "N=C(N)NCCCCCCCNC(=N)NCCCc1cc2cc(C(=N)N)ccc2o1", "note": "[compound 34, 2-(3-(3-(7-guanidinoheptyl)guanidino)propyl)benzofuran-5-carboximidamide]", "pest or weed control at 125 ppm": "≥ 75"},
      {"smiles": "N=C(N)c1ccc(OCCCCn2ccn(CCCCOc3ccc(C(=N)N)cc3)c2=N)cc1", "note": "[compound 36, 4-[4-[3-[4-(4-carbamimidoylphenoxy)butyl]-2-imino-imidazol-1-yl]butoxy]benzamidine]", "pest or weed control at 125 ppm": "≥ 75"},
      {"smiles": "N=C(N)c1ccc(OCCCCn2ccn(CCCOc3ccc(C(=N)N)cc3)c2=N)cc1", "note": "[compound 40, 4-[4-[3-[3-(4-carbamimidoylphenoxy)propyl]-2-imino-imidazol-1-yl]butoxy]benzamidine]", "pest or weed control at 125 ppm": "≥ 75"},
      {"smiles": "N=C(NCCCOc1ccc(C(=N)N)cc1)NCCCOc1ccc(C(=N)N)cc1", "note": "[compound 42, 4-[3-[[N-[3-(4-carbamimidoylphenoxy)propyl]carbamimidoyl]amino]propoxy]benzamidine]", "pest or weed control at 125 ppm": "≥ 75"},
      {"smiles": "N=C(N)NCCCCCCCNC(=N)NCCCOc1ccc(C(=N)N)nn1", "note": "[compound 44, 6-(3-(3-(7-guanidinoheptyl)guanidino)propoxy) pyridazine-3-carboxamidine]", "pest or weed control at 125 ppm": "≥ 75"},
      {"smiles": "N=C(N)c1ccc(OCCCCn2ccn(CCCCOc3ccc(C(=N)N)cn3)c2=NC(=O)C(F)(F)F)nc1", "note": "[compound 46, N-(1,3-bis(4-((5-carbamimidoylpyridin-2-yl)oxy)butyl)-1,3-dihydro-2H-imidazol-2-ylidene)-2,2,2-trifluoroacetamide]", "pest or weed control at 125 ppm": "≥ 75"},
      {"smiles": "N=C(N)NCCCCCCCNC(=N)NCCCC#Cc1nc(C(=N)N)cs1", "note": "[compound 50, 2-[5-[[N-(7-guanidinoheptyl)carbamimidoyl]amino]pent-1-ynyl]thiazole-4-carboxamidine]", "pest or weed control at 125 ppm": "≥ 75"},
      {"smiles": "N=C(N)NCCCCCCCn1ccn(CCCCOc2ccc(C(=N)N)cc2)c1=N", "note": "[compound 52, 4-[4-[3-(7-guanidinoheptyl)-2-imino-imidazol-1-yl]butoxy]benzamidine]", "pest or weed control at 125 ppm": "≥ 75"},
      {"smiles": "CN=C(NCCCOc1ccc(C(=N)N)cc1)NCCCOc1ccc(C(=N)N)cc1", "note": "[compound 57, 4-[3-[[N-[3-(4-carbamimidoylphenoxy)propyl]-N′-methyl-carbamimidoyl]amino]propoxy]benzamidine]", "pest or weed control at 125 ppm": "≥ 75"},
      {"smiles": "N=C(N)NCCCCCNC(=N)NCCCCOc1ccc(C(=N)N)cc1", "note": "[compound 59]", "pest or weed control at 125 ppm": "≥ 75"},
      {"smiles": "N=C(N)NCCCCCCCCNC(=N)NCCCCOc1ccc(C(=N)N)cn1", "note": "[compound 61, 6-[4-[[N-(8-guanidinooctyl)carbamimidoyl]amino]butoxy]pyridine-3-carboxamidine]", "pest or weed control at 125 ppm": "≥ 75"},
      {"smiles": "N=C(N)c1ccc(OCCCNC(=Nc2ccccc2)NCCCOc2ccc(C(=N)N)cc2)cc1", "note": "[compound 63, 4-[3-[[N-[3-(4-carbamimidoylphenoxy)propyl]-N′-phenyl-carbamimidoyl]amino]propoxy]benzamidine]", "pest or weed control at 125 ppm": "≥ 75"},
      {"smiles": "N=C(NCCCc1ccc(C(=N)N)cc1)NCCCc1ccc(C(=N)N)cc1", "note": "[compound 65, 4-[3-[[N-[3-(4-carbamimidoylphenyl)propyl]carbamimidoyl]amino]propyl]benzamidine]", "pest or weed control at 125 ppm": "≥ 75"},
      {"smiles": "CN(CCCOc1ccc(C(=N)N)cc1)C(=N)NCCCOc1ccc(C(=N)N)cc1", "note": "[compound 72]", "pest or weed control at 125 ppm": "≥ 75"},
      {"smiles": "N=C(NCCCOc1ccc(C(=N)N)c(F)c1)NCCCOc1ccc(C(=N)N)c(F)c1", "note": "[compound 82]", "pest or weed control at 125 ppm": "≥ 75"},
      {"smiles": "N=C(N)c1ccc(OCCCn2ccn(CCCOc3ccc(C(=N)N)cc3)c2=N)cc1", "note": "[compound 89]", "pest or weed control at 125 ppm": "≥ 75"},
      {"smiles": "N=C(N)c1ccc(OCCCCCn2ccn(CCOc3ccc(C(=N)N)cc3)c2=N)cc1", "note": "[compound 93]", "pest or weed control at 125 ppm": "≥ 75"},
      {"smiles": "N=C(N)c1ccc(OCCCn2ccn(CCCOc3ccc(C(=N)N)cc3Cl)c2=N)c(Cl)c1", "note": "[compound 99]", "pest or weed control at 125 ppm": "≥ 75"},
      {"smiles": "CNCCNC(=N)c1ccc(OCCCn2ccn(CCCOc3ccc(C(=N)N)cc3)c2=N)cc1", "note": "[compound 101]", "pest or weed control at 125 ppm": "≥ 75"},
      {"smiles": "N=C(N)c1ccc(OCCCn2ccn(CCCOc3ccc(C(=N)N)c(F)c3)c2=N)cc1F", "note": "[compound 103]", "pest or weed control at 125 ppm": "≥ 75"},
      {"smiles": "Cc1c(C)n(CCCCOc2ccc(C(=N)N)cc2)c(=N)n1CCCCOc1ccc(C(=N)N)cc1", "note": "[compound 105]", "pest or weed control at 125 ppm": "≥ 75"},
      {"smiles": "Cc1cn(CCCCOc2ccc(C(=N)N)cc2)c(=N)n1CCCCOc1ccc(C(=N)N)cc1", "note": "[compound 107]", "pest or weed control at 125 ppm": "≥ 75"},
      {"smiles": "Cc1c(C)n(CCCOc2ccc(C(=N)N)cc2)c(=N)n1CCCOc1ccc(C(=N)N)cc1", "note": "[compound 109]", "pest or weed control at 125 ppm": "≥ 75"},
      {"smiles": "N=C(N)NCCCCCCCCNC(=N)NCCCOc1ccc(C(=N)N)cc1Cl", "note": "[compound 112]", "pest or weed control at 125 ppm": "≥ 75"},
      {"smiles": "Cc1cn(CCCOc2ccc(C(=N)N)cc2)c(=N)n1CCCOc1ccc(C(=N)N)cc1", "note": "[compound 114]", "pest or weed control at 125 ppm": "≥ 75"},
      {"smiles": "N=C(N)NCCCCCCCCNC(=N)NCCCOc1ccc(C(=N)N)cn1", "note": "[compound 120]", "pest or weed control at 125 ppm": "≥ 75"},
      {"smiles": "CNC(=N)c1ccc(OCCCn2ccn(CCCOc3ccc(C(=N)N)cc3)c2=N)cc1", "note": "[compound 122]", "pest or weed control at 125 ppm": "≥ 75"},
      {"smiles": "N=C(N)c1ccc(OCCCn2ccn(CCCc3cc4cc(C(=N)N)ccc4o3)c2=N)cc1", "note": "[compound 126]", "pest or weed control at 125 ppm": "≥ 75"},
      {"smiles": "CN(CCCOc1ccc(C(=N)N)cc1)C(=N)NCCCCCCCCNC(=N)N", "note": "[compound 128]", "pest or weed control at 125 ppm": "≥ 75"},
      {"smiles": "CN(C)/C(=N\\CCCOc1ccc(C(=N)N)cc1)NCCCOc1ccc(C(=N)N)cc1", "note": "[compound 130]", "pest or weed control at 125 ppm": "≥ 75"},
      {"smiles": "N=C(N)NCCCCCNC(=N)NCCCOc1ccc(C(=N)N)cc1", "note": "[compound 132]", "pest or weed control at 125 ppm": "≥ 75"},
      {"smiles": "N=C(N)NCCCCCCNC(=N)NCCCOc1ccc(C(=N)N)cc1", "note": "[compound 134]", "pest or weed control at 125 ppm": "≥ 75"},
      {"smiles": "N=C(N)NCCCCCCNC(=N)NCCCCOc1ccc(C(=N)N)cc1", "note": "[compound 136]", "pest or weed control at 125 ppm": "≥ 75"},
      {"smiles": "C/N=C(/NCCCOc1ccc(C(=N)N)cc1)N(C)CCCOc1ccc(C(=N)N)cc1", "note": "[compound 138]", "pest or weed control at 125 ppm": "≥ 75"},
      {"smiles": "CN(CCCCCCCCNC(=N)N)C(=N)NCCCOc1ccc(C(=N)N)cc1", "note": "[compound 140]", "pest or weed control at 125 ppm": "≥ 75"},
      {"smiles": "N=C(NCCCOCc1ccc(C(=N)N)cc1)NCCCOc1ccc(C(=N)N)cc1", "note": "[compound 142]", "pest or weed control at 125 ppm": "≥ 75"},
      {"smiles": "N=C(N)NCCCCCCCCNC(=N)NCCCOCc1ccc(C(=N)N)cc1", "note": "[compound 145]", "pest or weed control at 125 ppm": "≥ 75"},
      {"smiles": "CNCCNC(=N)NCCCCCCCCNC(=N)NCCCCOc1ccc(C(=N)N)cc1", "note": "[compound 147]", "pest or weed control at 125 ppm": "≥ 75"},
      {"smiles": "N=C(N)c1ccc(OCCCn2cc(-c3ccccc3)n(CCCOc3ccc(C(=N)N)cc3)c2=N)cc1", "note": "[compound 149]", "pest or weed control at 125 ppm": "≥ 75"},
      {"smiles": "N=C(NCC/C=C/c1ccc(C(=N)N)cc1)NCC/C=C/c1ccc(C(=N)N)cc1", "note": "[compound 151]", "pest or weed control at 125 ppm": "≥ 75"},
      {"smiles": "N=C(N)NCCCCCCCCNC(=N)NCCC#Cc1ccc(C(=N)N)cc1", "note": "[compound 153]", "pest or weed control at 125 ppm": "≥ 75"},
      {"smiles": "N=C(NCC#Cc1ccc(C(=N)N)cc1)NCC#Cc1ccc(C(=N)N)cc1", "note": "[compound 155]", "pest or weed control at 125 ppm": "≥ 75"},
      {"smiles": "N=C(N)NCCCCCCCCNC(=N)NCCC=Cc1ccc(C(=N)N)cc1", "note": "[compound 157]", "pest or weed control at 125 ppm": "≥ 75"},
      {"smiles": "N=C(N)c1ccc(COCCCn2ccn(CCCOc3ccc(C(=N)N)cc3)c2=N)cc1", "note": "[compound 159]", "pest or weed control at 125 ppm": "≥ 75"},
      {"smiles": "N=C(N)c1ccc(COCCCn2ccn(CCCOCc3ccc(C(=N)N)cc3)c2=N)cc1", "note": "[compound 161]", "pest or weed control at 125 ppm": "≥ 75"},
      {"smiles": "N=C(N)NCCCCCCCNC(=N)NCCC=Cc1ccc(C(=N)N)cc1", "note": "[compound 163]", "pest or weed control at 125 ppm": "≥ 75"}
    ]}
  ]
}
